{
  "source": "PubChem BioAssay AID686978",
  "about": "(National Center for Advancing Translational Sciences (NCATS), 2013)",
  "note": "In all, about 420,000 compounds went through this assay and about 64,000 (15%) were called active. Inconclusive means that the source gave no clear call. Such entries were picked first, then a sample of the others. Calls follow the shape of the dose curve; as a rule, active = well fitted inhibition curve with a large enough effect; inconclusive = small, poorly fitted or top-dose-only effect; inactive = flat fitted curve, though single readings scatter. Potencies of inconclusive entries are left out as doubtful fits.",
  "data": [
    {"assay": "qHTS for Inhibitors of human tyrosyl-DNA phosphodiesterase 1 (TDP1): qHTS in cells in absence of CPT; also: nearly all actives have a fitted effect of over 55% in size; also: potency is read from the fitted curve at half-maximal effect; tags tell the direction and shape of the fitted curve; as to activity change, negative = growth inhibition: % is scaled to controls: 0 for no effect and ±100 for the full control effect", "settings": "DT40 Tdp1-/- hTDP1 cells, no CPT, ATP luminescence, 48 h; activity change, negative = growth inhibition: at 46.2 µM (top of the series) unless noted", "in_short": "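No-CPT arm: Tdp1-/-;hTDP1 DT40 cells (400/well) plus compounds, incubated ≥48 hr at 37 °C. Readout CellTiter-Glo luminescence.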", "values": [
      {"compound": "COc1ccc(NC(=O)C(C)N(C)Cc2ccc3ccccc3c2)cc1", "note": "(centres undefined)", "Potency": "active: 13 µM"},
      {"compound": "O=C(O)C1CCN(C(=O)CSc2nc3ccccc3s2)CC1", "Potency": "inconclusive [inhibitor, single point]"},
      {"compound": "COc1ccc(OC)c(NC(=O)c2ccc(CN(c3cc(Cl)ccc3C)S(=O)(=O)c3ccccc3)cc2)c1", "Potency": "inconclusive [inhibitor, partial curve]"},
      {"compound": "CCc1cc2ccccc2nc1SCC(=O)Nc1cc(C)on1", "Potency": "inconclusive [inhibitor, single point]"},
      {"compound": "CC(=O)c1cccc(OCC(=O)N(CCC2=CCCCC2)c2c(N)n(Cc3ccccc3)c(=O)[nH]c2=O)c1", "Potency": "inactive"},
      {"compound": "Cc1cc(C(F)(F)F)nc(NNc2nc(C)cc(C(F)(F)F)n2)n1", "Potency": "inconclusive [inhibitor, partial curve]"},
      {"compound": "COc1ccc(C2Nc3ccccc3C(=O)N2NS(C)(=O)=O)c(OC)c1", "note": "(centres undefined)", "activity change, negative = growth inhibition": "inconclusive: -32.7% [inhibitor]"},
      {"compound": "O=C(COc1c(Br)cc(Br)c2cccnc12)N1CCCCC1", "Potency": "inconclusive [inhibitor, single point]"},
      {"compound": "COc1cc(NC(=O)c2ccc(C)cc2C)ccc1NC(=O)c1cc2ccccc2o1", "Potency": "inconclusive [inhibitor, full curve]"},
      {"compound": "COc1ccc(CCNC(=O)CSc2cn(CCNC(=O)c3c(F)cccc3F)c3ccccc23)cc1OC", "Potency": "inconclusive [inhibitor, single point]"},
      {"compound": "CCOC(=O)Cn1nc(-c2ccccc2)c2cnc3ccc(C)cc3c21", "Potency": "inconclusive [inhibitor, partial curve]"},
      {"compound": "COc1ccc(S(=O)(=O)N(CC(=O)NCc2ccncc2)Cc2ccccc2)cc1", "Potency": "active: 11.6 µM"},
      {"compound": "CCSc1nc(N2CCCCC2)c2c(c1C#N)CCCC2", "Potency": "active: 16.4 µM"},
      {"compound": "FC(F)(F)c1ccc(Cl)c(N/N=C/c2ccc(N3CCOCC3)s2)c1", "Potency": "inconclusive [inhibitor, partial curve, poor fit]"},
      {"compound": "CC(=O)Nc1ccc(NS(=O)(=O)c2c(C(=O)N3CCCCCC3)c(C)n(C)c2C)cc1", "Potency": "inactive"},
      {"compound": "C[C@H]1CN([C@@H](C)CO)S(=O)(=O)c2ccc(Br)cc2O[C@@H]1CN(C)C(=O)C1CCOCC1", "activity change, negative = growth inhibition": "inconclusive: -28.8% [inhibitor]"},
      {"compound": "CN(C)CCCN(C(=O)c1ccc2c(c1)CCCC2)c1nc2ccc(Cl)cc2s1", "Potency": "active: 14.6 µM"},
      {"compound": "CCOc1ccc(CCNC(=O)c2cc(C)nn2-c2ccccc2)cc1", "Potency": "inconclusive [inhibitor, single point]"},
      {"compound": "COC(=O)c1ccccc1C(=O)N1CCCC(C(=O)c2cc(F)ccc2F)C1", "note": "(centres undefined)", "Potency": "inconclusive [inhibitor, single point]"}
    ]}
  ]
}
